# Measurements reported in the supplement of paper PMC8728848.
# The list shows a part of the results.
# B1: Epa1-NP (Candida glabrata), Q6VBJ0 (protein)
# chain: MILNPALFLNKCVCIYTTLILLLLTNGGYATSSNDISLASKDPTTFPLGCSPDITTPKKGLSMELYSYDFRKKGSYPCWDAAYLDPNYPRTGYKSHRLLAKVDGVTGNINFYYHATKGCTPQLGHLPASYNYPKPLTMTNFTMLLYGYFRPKVTGFHTFTISADDLLFVNFGAGNAFDCCRRDSSADHFGNYQAYAIWGSKTAKDELTVHLDAGVYYPIRLFYNNREYDGALSFTFKTESNENTVSDFSEYFFSLDDTEEGCPGLISYDSSCASVKTSKIIGIDYHTETPNENLVPITKTIYHLGIPCTGTTTTPLCGSGFYDPLANKCVTINTSSTSSVTKTTSHTTSKEVSFHSSISSQKTLIPKSIPSPYGPIKSQSIPTEMETSSEISSSEYAFSDVISTPSHSPYTKKHSSLNSSSYTSTVIHSLTSYSISQGIFSTSLSEQNITSKSSTDKFSTATSMSNNITQSSIIISQFSTNNENYTTTSMHTSSDKISTETLNNSISTTTSILFSNSSTILKNNTTIISSDKDTHYHPVNPTIVCSTNKTEIICASITQPSISNSNNHWSSSVLKFNSTTVRSTLPSSAGSNETSINVPFSSSTESNTSTSSTSTSNSKMVRSTLPSSAGSNETSISVPFSSSTESNTSTSSTSTSNSKMVRSTLPSSAGSNETSINVPFSSSTESNTSTSSTSTSNSKTVRSTPFSSAGIIMTSLSQRNNKSASSYASSNSKCYNTADSCRKVHSTPSYLLTSSYTSEGVDYDCSLVSTKLKINDTNCVNNKHTTKSCLKTSVTTTIPTLEIKTARKSSSNTIGLHSYPTSSPNKSISSAPIIGYISSFKTIKTASPSYQTSDLTTITTITSLNNPGSTAVENTHESNDKSRKTSSNDISSKHSVIKETKDAVESSNKSHQTNTLKCSSIIIASSSHNSYESLGGTTLTLTLSKVYSPQNNDTLPFLEISEVNPSRTVLPESSKMMQYLTSTEERNKTARNTIATNIVSISTFHFEGEGNAIRMGYTQLLLMLIGIIVMNIGT
# Legend:
# Test in all cases: glycan array binding signal (z-score within array); higher = stronger binding
# Conditions in all cases: glycan notation: IUPAC condensed, linker removed
# [1] = target: GalNAc(b1-3)Gal(a1-4)Gal(b1-4)GlcNAc
# Outline: (§1)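 Glycan array data came from 3228 arrays in the Consortium for Functional Glycomics database, and only arrays with an available protein sequence were kept. Glycan names were put into IUPAC-condensed notation, and columns mapping to the same glycan were averaged. The binding signal is a within-array Z-score, averaged across arrays of one protein sequence run at different concentrations or buffers and across linkers. A negative Z-score can be read as non-binding.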
# [2] = target: GalNAc(b1-3)Gal(a1-4)Gal(b1-4)GlcNAc(b1-3)Gal(b1-4)Glc
# Outline: as §1
# [3] = target: GalNAc(b1-3)Gal(a1-6)Gal(b1-4)Glc
# Outline: as §1
# GalNAc(b1-3)GalNAc = target: GalNAc(b1-3)GalNAc
# Outline: as §1
# GalNAc(b1-3)GlcNAc = target: GalNAc(b1-3)GlcNAc
# Outline: as §1
# GalNAc(b1-4)Gal(b1-4)Glc = target: GalNAc(b1-4)Gal(b1-4)Glc
# Outline: as §1
# GalNAc(b1-4)GlcNAc = target: GalNAc(b1-4)GlcNAc
# Outline: as §1
# [4] = target: GalNAc(b1-4)GlcNAc(b1-2)Man
# Outline: as §1
# [5] = target: GalNAc(b1-4)GlcNAc(b1-2)Man(a1-3)[GalNAc(b1-4)GlcNAc(b1-2)Man(a1-6)]Man(b1-4)GlcNAc(b1-4)GlcNAc
# Outline: as §1
# [6] = target: GalNAc(b1-4)GlcNAc(b1-3)GalNAc(b1-4)GlcNAc
# Outline: as §1
# GalNAc(b1-4)GlcNAc6S = target: GalNAc(b1-4)GlcNAc6S
# Outline: as §1
# GalNAc(b1-6)GalNAc = target: GalNAc(b1-6)GalNAc
# Outline: as §1
# GalNAc3S(b1-4)GlcNAc = target: GalNAc3S(b1-4)GlcNAc
# Outline: as §1
# GalNAc3S(b1-4)GlcNAc3S = target: GalNAc3S(b1-4)GlcNAc3S
# Outline: as §1
# [7] = target: GalNAc3S(b1-4)[Fuc(a1-3)]GlcNAc
# Outline: as §1
# GalNAc4S6S(b1-4)GlcNAc = target: GalNAc4S6S(b1-4)GlcNAc
# Outline: as §1
# GalNAc6S(b1-4)GlcNAc = target: GalNAc6S(b1-4)GlcNAc
# Outline: as §1
# Glc(a1-4)Glc = target: Glc(a1-4)Glc
# Outline: as §1
# [8] = target: Glc(a1-4)Glc(a1-4)Glc(a1-4)Glc
# Outline: as §1
# Glc(a1-6)Glc(a1-6)Glc = target: Glc(a1-6)Glc(a1-6)Glc
# Outline: as §1
# [9] = target: Glc(a1-6)Glc(a1-6)Glc(a1-6)Glc
# Outline: as §1
# Glc(b1-4)Glc = target: Glc(b1-4)Glc
# Outline: as §1
# Glc(b1-6)Glc = target: Glc(b1-6)Glc
# Outline: as §1
# GlcA(b1-3)Gal = target: GlcA(b1-3)Gal
# Outline: as §1
# GlcA(b1-3)GlcNAc = target: GlcA(b1-3)GlcNAc
# Outline: as §1
# GlcA(b1-6)Gal = target: GlcA(b1-6)Gal
# Outline: as §1
# [10] = target: GlcA3S(b1-3)Gal(b1-4)GlcNAc(b1-2)Man
# Outline: as §1
# [11] = target: GlcA3S(b1-3)Gal(b1-4)GlcNAc(b1-3)Gal(b1-4)Glc
# Outline: as §1
# [12] = target: GlcNAc(a1-3)Gal(b1-4)GlcNAc
# Outline: as §1
# [13] = target: GlcNAc(a1-4)Gal(b1-3)GlcNAc
# Outline: as §1
binder,measurement,setting,value
B1,glycan array binding signal (z-score),[1],-0.325
same,glycan array binding signal (z-score),[2],-0.299
same,glycan array binding signal (z-score),[3],-0.294
same,glycan array binding signal (z-score),GalNAc(b1-3)GalNAc,-0.293
same,glycan array binding signal (z-score),GalNAc(b1-3)GlcNAc,-0.289
same,glycan array binding signal (z-score),GalNAc(b1-4)Gal(b1-4)Glc,-0.286
same,glycan array binding signal (z-score),GalNAc(b1-4)GlcNAc,-0.317
same,glycan array binding signal (z-score),[4],-0.279
same,glycan array binding signal (z-score),[5],-0.258
same,glycan array binding signal (z-score),[6],-0.291
same,glycan array binding signal (z-score),GalNAc(b1-4)GlcNAc6S,-0.288
same,glycan array binding signal (z-score),GalNAc(b1-6)GalNAc,-0.293
same,glycan array binding signal (z-score),GalNAc3S(b1-4)GlcNAc,-0.281
same,glycan array binding signal (z-score),GalNAc3S(b1-4)GlcNAc3S,-0.283
same,glycan array binding signal (z-score),[7],-0.287
same,glycan array binding signal (z-score),GalNAc4S6S(b1-4)GlcNAc,-0.285
same,glycan array binding signal (z-score),GalNAc6S(b1-4)GlcNAc,-0.284
same,glycan array binding signal (z-score),Glc(a1-4)Glc,-0.326
same,glycan array binding signal (z-score),[8],-0.294
same,glycan array binding signal (z-score),Glc(a1-6)Glc(a1-6)Glc,-0.338
same,glycan array binding signal (z-score),[9],-0.296
same,glycan array binding signal (z-score),Glc(b1-4)Glc,-0.318
same,glycan array binding signal (z-score),Glc(b1-6)Glc,-0.339
same,glycan array binding signal (z-score),GlcA(b1-3)Gal,-0.349
same,glycan array binding signal (z-score),GlcA(b1-3)GlcNAc,-0.271
same,glycan array binding signal (z-score),GlcA(b1-6)Gal,1.04
same,glycan array binding signal (z-score),[10],-0.283
same,glycan array binding signal (z-score),[11],-0.287
same,glycan array binding signal (z-score),[12],-0.317
same,glycan array binding signal (z-score),[13],-0.292
